Results from the supplement of paper PMC11417369.
± gives the standard deviation of the averaged measurements. This is one part of the list.

What follows are sequences tested on PfAP2-EXP AP2 domain (GST-tagged) (assay: gcPBM binding intensity (ln(normalized median fluorescence intensity)); higher = stronger DNA binding).
Method in brief: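 GST-tagged P. falciparum DNA-binding domains, expressed in E. coli (about 25 μg on average), were applied for 1 h to an Agilent 4 × 180k array of primer-extended double-stranded 36-bp intergenic genomic probes plus negative controls. The binding buffer was 1× PBS with 1% milk, 0.2 mg/ml BSA, 0.5% salmon testes DNA and 0.03% Triton X-100. Bound protein was detected with Alexa488 anti-GST antibody and scanned at 488 nm. Binding intensity is the highest Masliner-normalised natural-log median intensity across replicate spots of either probe orientation.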

“AATGAAAAGGAACATACACACCCCATATAAATATAT [CACACA_site7588]” and “TCATATTTTACATATGCATGTTAATAATACAAACAT [TGCATGCA_site994]” are within error of each other in “gcPBM binding intensity (ln)” value: 9.34 ± 0.81 for the first, 8.47 ± 0.41 for the second.

“TTTTTTTCGTATATTACACACTATAAATAGAAATTA [CACACA_site6278]” and “GTATAACAACTGATAAAAGAAAAAAAATTTATTATT [CACACA_negctrl_site377]” are within error of each other in “gcPBM binding intensity (ln)” value: 8.55 ± 0.45 for the first, 8.32 ± 0.41 for the second.

“ATAATATTTTTAAACTGTACTTTTATAAACACTTAT [XGTACX_site2625]” and “ATTTATTTATGTATTTGTACGTATATATTTATGCAT [XGTACX_site5218]” are within error of each other in “gcPBM binding intensity (ln)” value: 8.55 ± 0.39 for the first, 8.75 ± 0.37 for the second.

“ATATTATGTCTACATAAACACACATATATATAAAAA [CACACA_site7976]” and “AATAAATATTCATTTTGTACATATTTTTCGTATATG [XGTACX_site6104]” are within error of each other in “gcPBM binding intensity (ln)” value: 8.62 ± 0.48 for the first, 8.54 ± 0.39 for the second.

Compared with “TTACCATAAGTATGTGGTACACTTTAAATGAAGATA [XGTACX_site6972]”, “AATAGTTATAAATATAAATATATATATATATATATA [CACACA_negctrl_site414]” is higher in “gcPBM binding intensity (ln)” value: 8.46 ± 0.42 for the first, 10 ± 0.29 for the second.

“TATATATATAAATACACACACACCCTAAAAATATAT [CACACA_site4970]” and “TTAACATCAAAATATGCACACAAACAATTAGCGGTA [CACACA_site8801]” are within error of each other in “gcPBM binding intensity (ln)” value: 8.99 ± 0.57 for the first, 8.69 ± 0.44 for the second.

“AAAACTATAATAAAAGGTACACATTTATTTTTTTCT [XGTACX_site730]” and “TATATTATTCATTAAGCACACATTATTTTTATAATA [CACACA_site6056]” are within error of each other in “gcPBM binding intensity (ln)” value: 8.32 ± 0.3 for the first, 8.31 ± 0.29 for the second.

“ATGTTTGATGCTACACGTACACACCTTGCAAATATT [XGTACX_site1644]” and “TTTTTTTTTTTTTTTACACACACAAAATATTATATG [CACACA_site2471]” are within error of each other in “gcPBM binding intensity (ln)” value: 9.07 ± 0.38 for the first, 8.44 ± 0.49 for the second.

“TATTATTTACCTTGCTAGTTCGTTCCAAATTTTATG [XGTACX_negctrl_site197]” and “AAAACAAATTTTAATGAGAATATGAAAAAAAAATAT [XGTACX_negctrl_site268]” are within error of each other in “gcPBM binding intensity (ln)” value: 8.93 ± 0.52 for the first, 8.72 ± 0.45 for the second.

“CACATTATGTATCATACACACAAATAAATATAGAAT [CACACA_site609]” and “TATTCTAATATATGCATACACACAAATGTGAATATA [CACACA_site2143]” are within error of each other in “gcPBM binding intensity (ln)” value: 8.81 ± 0.38 for the first, 8.47 ± 0.36 for the second.

“TTTATATGTATTAAGTGTACACATATAATGTGTTTT [XGTACX_site4890]” and “CAAAATTGAAGGAACACACATACATATATATATATG [CACACA_site179]” are within error of each other in “gcPBM binding intensity (ln)” value: 8.46 ± 0.24 for the first, 8.65 ± 0.44 for the second.

“TAAAAAAGAACAGAAACACACAAATAAAATAAAATT [CACACA_site1758]” and “ATTTTAAATATTTGTGGTACCCCTTTTTTGTAACAA [XGTACX_site5590]” are within error of each other in “gcPBM binding intensity (ln)” value: 8.89 ± 0.45 for the first, 8.86 ± 0.42 for the second.
